According to patent publication US20210340207A1 (Merck Sharp & Dohme, published 2021):

T1: human IL-2Rβγc (on DERL-7 cells, U2OS IL2RB/IL2RG cells, CD25 knockout Kit225-STAT5 cells, primary CD8+ CTLs) (human, UniProt P14784 27-551; P31785 23-369)
T1 sequence (looked up) 1: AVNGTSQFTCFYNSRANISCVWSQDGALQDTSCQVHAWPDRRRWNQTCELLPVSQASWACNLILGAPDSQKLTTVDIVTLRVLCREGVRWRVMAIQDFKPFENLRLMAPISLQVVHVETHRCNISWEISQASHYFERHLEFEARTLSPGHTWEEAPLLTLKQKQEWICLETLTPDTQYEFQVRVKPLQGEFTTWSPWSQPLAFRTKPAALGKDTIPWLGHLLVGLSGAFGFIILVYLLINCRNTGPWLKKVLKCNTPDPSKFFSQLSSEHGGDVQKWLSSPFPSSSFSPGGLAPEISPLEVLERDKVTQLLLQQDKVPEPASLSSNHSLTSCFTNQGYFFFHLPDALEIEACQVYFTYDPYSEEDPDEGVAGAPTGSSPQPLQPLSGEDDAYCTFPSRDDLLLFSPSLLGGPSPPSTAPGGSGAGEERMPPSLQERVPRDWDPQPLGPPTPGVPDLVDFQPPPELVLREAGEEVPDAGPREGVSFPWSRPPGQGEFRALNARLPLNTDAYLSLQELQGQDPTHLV
T1 sequence (looked up) 2: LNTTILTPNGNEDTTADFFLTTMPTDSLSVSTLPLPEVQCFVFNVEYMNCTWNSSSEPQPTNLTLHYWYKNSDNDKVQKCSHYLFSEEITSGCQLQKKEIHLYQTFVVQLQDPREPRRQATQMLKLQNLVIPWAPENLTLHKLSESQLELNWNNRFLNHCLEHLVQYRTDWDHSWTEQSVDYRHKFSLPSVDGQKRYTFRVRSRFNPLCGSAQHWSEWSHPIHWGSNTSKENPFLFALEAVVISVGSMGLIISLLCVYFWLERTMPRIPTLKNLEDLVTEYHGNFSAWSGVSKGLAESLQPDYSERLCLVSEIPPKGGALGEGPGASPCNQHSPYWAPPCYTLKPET

T2: human IL-2Rαβγc (on Kit225-STAT5 reporter cells, NK-92 cells, primary Treg cells) (human, UniProt P01589 22-272; P14784 27-551; P31785 23-369)
T2 sequence (looked up) 1: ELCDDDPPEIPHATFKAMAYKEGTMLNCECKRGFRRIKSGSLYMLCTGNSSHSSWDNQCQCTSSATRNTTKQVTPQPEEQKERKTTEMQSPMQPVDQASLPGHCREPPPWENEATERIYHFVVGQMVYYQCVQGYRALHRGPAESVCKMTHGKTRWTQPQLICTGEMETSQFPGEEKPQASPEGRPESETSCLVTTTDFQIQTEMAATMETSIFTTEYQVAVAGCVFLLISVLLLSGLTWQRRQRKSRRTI
T2 sequence (looked up) 2: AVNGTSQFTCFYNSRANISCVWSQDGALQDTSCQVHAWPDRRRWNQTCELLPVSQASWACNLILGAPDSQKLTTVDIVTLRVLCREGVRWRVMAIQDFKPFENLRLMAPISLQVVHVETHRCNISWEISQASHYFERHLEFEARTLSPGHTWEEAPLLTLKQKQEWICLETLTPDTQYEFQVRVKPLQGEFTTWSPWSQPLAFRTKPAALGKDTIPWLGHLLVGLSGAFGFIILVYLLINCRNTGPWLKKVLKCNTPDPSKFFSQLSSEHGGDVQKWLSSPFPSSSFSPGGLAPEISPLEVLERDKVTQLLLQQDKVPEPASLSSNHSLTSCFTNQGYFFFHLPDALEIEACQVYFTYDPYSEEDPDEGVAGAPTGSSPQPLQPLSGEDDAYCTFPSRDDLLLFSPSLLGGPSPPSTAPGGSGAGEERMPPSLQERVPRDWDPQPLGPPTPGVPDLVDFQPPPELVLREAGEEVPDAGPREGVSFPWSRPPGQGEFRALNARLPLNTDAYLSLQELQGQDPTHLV
T2 sequence (looked up) 3: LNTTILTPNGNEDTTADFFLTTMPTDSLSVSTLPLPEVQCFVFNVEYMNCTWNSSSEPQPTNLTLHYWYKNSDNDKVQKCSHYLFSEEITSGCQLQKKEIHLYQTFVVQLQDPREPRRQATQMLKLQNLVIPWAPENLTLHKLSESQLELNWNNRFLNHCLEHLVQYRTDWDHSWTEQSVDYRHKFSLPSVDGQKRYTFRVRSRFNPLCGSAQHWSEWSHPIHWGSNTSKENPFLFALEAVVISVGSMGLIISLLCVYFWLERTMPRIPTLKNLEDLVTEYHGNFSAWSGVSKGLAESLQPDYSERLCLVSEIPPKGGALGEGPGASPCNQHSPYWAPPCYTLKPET

T3: IL-2Rβ-Fc (Acro Biosystems, catalog #ILB-H5253) (UniProt P14784 27-239)
T3 construct: not shown: Fc
T3 sequence (looked up): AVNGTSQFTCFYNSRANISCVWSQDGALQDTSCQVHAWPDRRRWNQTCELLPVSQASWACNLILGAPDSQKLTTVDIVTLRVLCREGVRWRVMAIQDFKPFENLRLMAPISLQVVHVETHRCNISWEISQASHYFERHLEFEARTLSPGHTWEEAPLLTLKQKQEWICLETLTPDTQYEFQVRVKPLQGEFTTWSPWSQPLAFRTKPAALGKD

T4: Human IL-2Rα (Table 7A) (human, UniProt P01589 22-213, limits assumed)
T4 sequence (looked up): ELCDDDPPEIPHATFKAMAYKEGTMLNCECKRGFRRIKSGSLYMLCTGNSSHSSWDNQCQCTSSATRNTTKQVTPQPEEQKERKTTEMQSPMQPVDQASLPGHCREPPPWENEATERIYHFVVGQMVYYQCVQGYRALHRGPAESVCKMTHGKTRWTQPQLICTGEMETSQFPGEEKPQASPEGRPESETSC


What was measured:
[1] = target: T1, human IL-2Rβγc (on DERL-7 cells, U2OS …); assay: cell-based or functional assay
[2] = target: T2, human IL-2Rαβγc (on Kit225-STAT5 …); assay: cell-based or functional assay
[3] = target: T3, IL-2Rβ-Fc (Acro Biosystems, catalog …); assay: SPR, receptor-Fc captured on anti-Fc, IL-2 variant as analyte
Experimental: Anti-Fc polyclonal antibodies are immobilized onto a CM5 chip (GE Life Sciences) using amine coupling chemistry (from Amine Coupling Kit, GE Life Sciences). The immobilization steps are carried out at a flow rate of 25 μL/minute in 1×HBS-EP+ buffer (GE Life Sciences; 10× Stock diluted before use). The sensor surfaces are activated for 7 min with a mixture of NHS (0.05 M) and EDC (0.2 M). The anti-Fc antibodies are injected over all four flow cells at a concentration of 25 μg/mL in 10 mM sodium acetate, pH 4.5, for seven minutes. Ethanolamine (1 M, pH 8.5) is injected for seven minutes to block any remaining activated groups. An average of 12,000 response units (RU) of capture antibody is immobilized on each flow cell.
Kinetic binding experiments are performed at 25° C. using 1×HBS-EP+ buffer. IL-2Rα-Fc or IL-2Rβ-Fc (Acro Biosystems, catalog #ILA-H5251, ILB-H5253) are injected over the anti-Fc surface at concentrations of 3-10 μg/mL for 12 seconds at a flow rate of 10 μL/minute on flow cells 2, 3 and 4, followed by a buffer wash for 30 seconds at the same flow rate. Kinetic characterization of conjugated or unconjugated aldesleukin or variants is carried out in a range of concentrations from 1 nM-10 μM and one injection of no antigen. […]

[4] = target: T4, Human IL-2Rα (Table 7A); assay: SPR (Biacore T200)
[5] = target: T1, human IL-2Rβγc (on DERL-7 cells, U2OS …); assay: cell-based or functional assay; remark: listed apart in the source

| pSTAT5 CTLs EC50, donor #1 [1] | pSTAT5 CTLs EC50, donor #2 [1] | pSTAT5 CTLs Fold-change from wt, donor #1 [1] | pSTAT5 CTLs Fold-change from wt, donor #2 [1] | pSTAT5 Treg Fold-change from wt, donor #1 [2] | pSTAT5 Treg Fold-change from wt, donor #2 [2] | pSTAT5 Treg cells EC50, donor #1 [2] | pSTAT5 Treg cells EC50, donor #2 [2] | Kd [3] | koff [4] | kon [4] | DERL7 EC50 Fold Change [5] | DERL7 cell assay EC50 [5] | Binder |
| --- | --- | --- | --- | --- | --- | --- | --- | --- | --- | --- | --- | --- | --- |
| 2.83 nM | 0.97 nM | 1 fold | 1 fold | 1 fold | 1 fold | 3 pM | 3 pM | – | – | – | – | – | Aldesleukin (DesA1_IL-2_C124S) (ligand) not shown |
| – | – | – | – | – | – | – | – | 300 nM | 0.18 s⁻¹ | 1.2e+06 M⁻¹ s⁻¹ | 1 fold | 0.018 nM | Ald-6HIS (ligand, also called aldesleukin with carboxyl-terminus HIS6-tag linked via a Gly-Gly-Ser linker) not shown |
